# The supplement of paper PMC8728848
# Some of the results follow.
# B1: OGAN (protein)
# chain: MVQKESQATLEERESELSSNPAASAGASLEPPAAPAPGEDNPAGAGGAAVAGAAGGARRFLCGVVEGFYGRPWVMEQRKELFRRLQKWELNTYLYAPKDDYKHRMFWREMYSVEEAEQLMTLISAAREYEIEFIYAISPGLDITFSNPKEVSTLKRKLDQVSQFGCRSFALLFNDIDHNMCAADKEVFSSFAHAQVSITNEIYQYLGEPETFLFCPTEYCGTFCYPNVSQSPYLRTVGEKLLPGIEVLWTGPKVVSKEIPVESIEEVSKIIKRAPVIWDNIHANDYDQKRLFLGPYKGRSTELIPRLKGVLTNPNCEFEANYVAIHTLATWYKSNMNGVRKDVVMTDSEDSTVSIQIKLENEGSDEDIETDVLYSPQMALKLALTEWLQEFGVPHQY
# What was measured:
# Assay in all cases: glycan array binding signal (z-score within array); higher = stronger binding
# Conditions in all cases: glycan notation: IUPAC condensed, linker removed
# [1] = biological target: Neu5Ac(a2-6)Gal(b1-3)GlcNAc(b1-3)[Gal(b1-4)GlcNAc(b1-6)]Gal(b1-4)Glc
# How it was run: (§1)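 The Consortium for Functional Glycomics database supplied 3228 glycan arrays, of which those lacking an available protein sequence were dropped. The binding signal, a within-array Z-score, was averaged across arrays of the same protein sequence and across linkers. Negative scores can be read as non-binding.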
# [2] = biological target: Neu5Ac(a2-6)Gal(b1-4)Glc
# How it was run: as §1
# [3] = biological target: Neu5Ac(a2-6)Gal(b1-4)GlcNAc
# How it was run: as §1
# [4] = biological target: Neu5Ac(a2-6)Gal(b1-4)GlcNAc(b1-2)Man
# How it was run: as §1
# [5] = biological target: Neu5Ac(a2-6)Gal(b1-4)GlcNAc(b1-2)Man(a1-3)Man(b1-4)GlcNAc(b1-4)GlcNAc
# How it was run: as §1
# [6] = biological target: Neu5Ac(a2-6)Gal(b1-4)GlcNAc(b1-2)Man(a1-3)[Gal(b1-4)GlcNAc(b1-2)Man(a1-6)]Man(b1-4)GlcNAc(b1-4)GlcNAc
# How it was run: as §1
# [7] = biological target: Neu5Ac(a2-6)Gal(b1-4)GlcNAc(b1-2)Man(a1-3)[GlcNAc(b1-2)Man(a1-6)]Man(b1-4)GlcNAc(b1-4)GlcNAc
# How it was run: as §1
# [8] = biological target: Neu5Ac(a2-6)Gal(b1-4)GlcNAc(b1-2)Man(a1-3)[GlcNAc(b1-4)][Neu5Ac(a2-6)Gal(b1-4)GlcNAc(b1-2)Man(a1-6)]Man(b1-4)GlcNAc(b1-4)GlcNAc
# How it was run: as §1
# [9] = biological target: Neu5Ac(a2-6)Gal(b1-4)GlcNAc(b1-2)Man(a1-3)[Man(a1-6)]Man(b1-4)GlcNAc(b1-4)GlcNAc
# How it was run: as §1
# [10] = biological target: Neu5Ac(a2-6)Gal(b1-4)GlcNAc(b1-2)Man(a1-3)[Neu5Ac(a2-3)Gal(b1-4)GlcNAc(b1-2)Man(a1-6)]Man(b1-4)GlcNAc(b1-4)GlcNAc
# How it was run: as §1
# [11] = biological target: Neu5Ac(a2-6)Gal(b1-4)GlcNAc(b1-2)Man(a1-3)[Neu5Ac(a2-6)Gal(b1-4)GlcNAc(b1-2)Man(a1-6)]Man(b1-4)GlcNAc(b1-4)GlcNAc
# How it was run: as §1
# [12] = biological target: Neu5Ac(a2-6)Gal(b1-4)GlcNAc(b1-2)Man(a1-3)[Neu5Ac(a2-6)Gal(b1-4)GlcNAc(b1-2)Man(a1-6)]Man(b1-4)GlcNAc(b1-4)[Fuc(a1-6)]GlcNAc
# How it was run: as §1
# [13] = biological target: Neu5Ac(a2-6)Gal(b1-4)GlcNAc(b1-2)Man(a1-6)Man(b1-4)GlcNAc(b1-4)GlcNAc
# How it was run: as §1
# [14] = biological target: Neu5Ac(a2-6)Gal(b1-4)GlcNAc(b1-2)Man(a1-6)[Gal(b1-4)GlcNAc(b1-2)Man(a1-3)]Man(b1-4)GlcNAc(b1-4)GlcNAc
# How it was run: as §1
# [15] = biological target: Neu5Ac(a2-6)Gal(b1-4)GlcNAc(b1-2)Man(a1-6)[GlcNAc(b1-2)Man(a1-3)]Man(b1-4)GlcNAc(b1-4)GlcNAc
# How it was run: as §1
# [16] = biological target: Neu5Ac(a2-6)Gal(b1-4)GlcNAc(b1-2)Man(a1-6)[Man(a1-3)]Man(b1-4)GlcNAc(b1-4)GlcNAc
# How it was run: as §1
# [17] = biological target: Neu5Ac(a2-6)Gal(b1-4)GlcNAc(b1-2)[Neu5Ac(a2-6)Gal(b1-4)GlcNAc(b1-4)]Man(a1-3)[GlcNAc(b1-4)][Neu5Ac(a2-6)Gal(b1-4)GlcNAc(b1-2)[Neu5Ac(a2-6)Gal(b1-4)GlcNAc(b1-6)]Man(a1-6)]Man(b1-4)GlcNAc(b1-4)GlcNAc
# How it was run: as §1
# [18] = biological target: Neu5Ac(a2-6)Gal(b1-4)GlcNAc(b1-2)[Neu5Ac(a2-6)Gal(b1-4)GlcNAc(b1-4)]Man(a1-3)[GlcNAc(b1-4)][Neu5Ac(a2-6)Gal(b1-4)GlcNAc(b1-4)Man(a1-6)]Man(b1-4)GlcNAc(b1-4)GlcNAc
# How it was run: as §1
# [19] = biological target: Neu5Ac(a2-6)Gal(b1-4)GlcNAc(b1-2)[Neu5Ac(a2-6)Gal(b1-4)GlcNAc(b1-6)]Man(a1-6)[Neu5Ac(a2-6)Gal(b1-4)GlcNAc(b1-2)Man(a1-3)][GlcNAc(b1-4)]Man(b1-4)GlcNAc(b1-4)GlcNAc
# How it was run: as §1
# [20] = biological target: Neu5Ac(a2-6)Gal(b1-4)GlcNAc(b1-3)Gal(b1-3)GlcNAc
# How it was run: as §1
# [21] = biological target: Neu5Ac(a2-6)Gal(b1-4)GlcNAc(b1-3)Gal(b1-4)GlcNAc
# How it was run: as §1
# [22] = biological target: Neu5Ac(a2-6)Gal(b1-4)GlcNAc(b1-3)Gal(b1-4)GlcNAc(b1-2)Man(a1-3)[Neu5Ac(a2-6)Gal(b1-4)GlcNAc(b1-3)Gal(b1-4)GlcNAc(b1-2)Man(a1-6)]GalNAc
# How it was run: as §1
# [23] = biological target: Neu5Ac(a2-6)Gal(b1-4)GlcNAc(b1-3)Gal(b1-4)GlcNAc(b1-3)Gal(b1-4)GlcNAc
# How it was run: as §1
# [24] = biological target: Neu5Ac(a2-6)Gal(b1-4)GlcNAc(b1-3)Gal(b1-4)GlcNAc(b1-3)Gal(b1-4)GlcNAc(b1-2)Man(a1-3)[Neu5Ac(a2-6)Gal(b1-4)GlcNAc(b1-3)Gal(b1-4)GlcNAc(b1-3)Gal(b1-4)GlcNAc(b1-2)Man(a1-6)]GalNAc
# How it was run: as §1
# [25] = biological target: Neu5Ac(a2-6)Gal(b1-4)GlcNAc(b1-3)Gal(b1-4)GlcNAc(b1-3)GalNAc
# How it was run: as §1
# [26] = biological target: Neu5Ac(a2-6)Gal(b1-4)GlcNAc(b1-3)Gal(b1-4)GlcNAc(b1-3)[Neu5Ac(a2-6)Gal(b1-4)GlcNAc(b1-3)Gal(b1-4)GlcNAc(b1-6)]GalNAc
# How it was run: as §1
# [27] = biological target: Neu5Ac(a2-6)Gal(b1-4)GlcNAc(b1-3)Gal(b1-4)GlcNAc(b1-6)[Gal(b1-3)]GalNAc
# How it was run: as §1
# [28] = biological target: Neu5Ac(a2-6)Gal(b1-4)GlcNAc(b1-3)Gal(b1-4)[Fuc(a1-3)]GlcNAc(b1-3)Gal(b1-4)[Fuc(a1-3)]GlcNAc
# How it was run: as §1
# [29] = biological target: Neu5Ac(a2-6)Gal(b1-4)GlcNAc(b1-3)GalNAc
# How it was run: as §1
# [30] = biological target: Neu5Ac(a2-6)Gal(b1-4)GlcNAc(b1-3)[Neu5Ac(a2-6)Gal(b1-4)GlcNAc(b1-6)]GalNAc
# How it was run: as §1
# [31] = biological target: Neu5Ac(a2-6)Gal(b1-4)GlcNAc(b1-6)GalNAc
# How it was run: as §1
# [32] = biological target: Neu5Ac(a2-6)Gal(b1-4)GlcNAc(b1-6)[Gal(b1-3)GlcNAc(b1-3)]Gal(b1-4)Glc
# How it was run: as §1
# [33] = biological target: Neu5Ac(a2-6)Gal(b1-4)GlcNAc(b1-6)[Gal(b1-3)]GalNAc
# How it was run: as §1
# [34] = biological target: Neu5Ac(a2-6)Gal(b1-4)GlcNAc6S
# How it was run: as §1
# [35] = biological target: Neu5Ac(a2-6)GalNAc
# How it was run: as §1
# [36] = biological target: Neu5Ac(a2-6)GalNAc(b1-4)GlcNAc
# How it was run: as §1
# [37] = biological target: Neu5Ac(a2-6)GalNAc(b1-4)GlcNAc6S
# How it was run: as §1
# [38] = biological target: Neu5Ac(a2-6)GlcNAc(b1-4)GlcNAc
# How it was run: as §1
binder,measurement,setting,value
B1,glycan array binding signal (z-score),[1],-0.101
same,glycan array binding signal (z-score),[2],-0.036
same,glycan array binding signal (z-score),[3],-0.059
same,glycan array binding signal (z-score),[4],-0.061
same,glycan array binding signal (z-score),[5],-0.053
same,glycan array binding signal (z-score),[6],-0.055
same,glycan array binding signal (z-score),[7],-0.08
same,glycan array binding signal (z-score),[8],-0.034
same,glycan array binding signal (z-score),[9],-0.021
same,glycan array binding signal (z-score),[10],-0.09
same,glycan array binding signal (z-score),[11],-0.057
same,glycan array binding signal (z-score),[12],-0.039
same,glycan array binding signal (z-score),[13],-0.076
same,glycan array binding signal (z-score),[14],-0.074
same,glycan array binding signal (z-score),[15],-0.124
same,glycan array binding signal (z-score),[16],-0.037
same,glycan array binding signal (z-score),[17],-0.079
same,glycan array binding signal (z-score),[18],-0.052
same,glycan array binding signal (z-score),[19],0.005
same,glycan array binding signal (z-score),[20],-0.1
same,glycan array binding signal (z-score),[21],-0.064
same,glycan array binding signal (z-score),[22],-0.046
same,glycan array binding signal (z-score),[23],-0.045
same,glycan array binding signal (z-score),[24],0.039
same,glycan array binding signal (z-score),[25],-0.057
same,glycan array binding signal (z-score),[26],-0.073
same,glycan array binding signal (z-score),[27],-0.038
same,glycan array binding signal (z-score),[28],-0.06
same,glycan array binding signal (z-score),[29],-0.063
same,glycan array binding signal (z-score),[30],-0.077
same,glycan array binding signal (z-score),[31],-0.036
same,glycan array binding signal (z-score),[32],-0.051
same,glycan array binding signal (z-score),[33],-0.091
same,glycan array binding signal (z-score),[34],-0.052
same,glycan array binding signal (z-score),[35],-0.071
same,glycan array binding signal (z-score),[36],-0.08
same,glycan array binding signal (z-score),[37],-0.055
same,glycan array binding signal (z-score),[38],-0.066
